Measured values from paper PMC4336329 (PLoS ONE, 2015).
About 2,200 (0.71%) of roughly 310,000 compounds showed an effect of 50% or more. The effect is printed as a negative number. This is one part of the list.

biological target: human ether-à-go-go-related gene (hERG) potassium channel (human, UniProt Q12809); test: primary screen, population patch clamp on CHO cells stably expressing hERG
Sequence (Q12809 whole entry, looked up): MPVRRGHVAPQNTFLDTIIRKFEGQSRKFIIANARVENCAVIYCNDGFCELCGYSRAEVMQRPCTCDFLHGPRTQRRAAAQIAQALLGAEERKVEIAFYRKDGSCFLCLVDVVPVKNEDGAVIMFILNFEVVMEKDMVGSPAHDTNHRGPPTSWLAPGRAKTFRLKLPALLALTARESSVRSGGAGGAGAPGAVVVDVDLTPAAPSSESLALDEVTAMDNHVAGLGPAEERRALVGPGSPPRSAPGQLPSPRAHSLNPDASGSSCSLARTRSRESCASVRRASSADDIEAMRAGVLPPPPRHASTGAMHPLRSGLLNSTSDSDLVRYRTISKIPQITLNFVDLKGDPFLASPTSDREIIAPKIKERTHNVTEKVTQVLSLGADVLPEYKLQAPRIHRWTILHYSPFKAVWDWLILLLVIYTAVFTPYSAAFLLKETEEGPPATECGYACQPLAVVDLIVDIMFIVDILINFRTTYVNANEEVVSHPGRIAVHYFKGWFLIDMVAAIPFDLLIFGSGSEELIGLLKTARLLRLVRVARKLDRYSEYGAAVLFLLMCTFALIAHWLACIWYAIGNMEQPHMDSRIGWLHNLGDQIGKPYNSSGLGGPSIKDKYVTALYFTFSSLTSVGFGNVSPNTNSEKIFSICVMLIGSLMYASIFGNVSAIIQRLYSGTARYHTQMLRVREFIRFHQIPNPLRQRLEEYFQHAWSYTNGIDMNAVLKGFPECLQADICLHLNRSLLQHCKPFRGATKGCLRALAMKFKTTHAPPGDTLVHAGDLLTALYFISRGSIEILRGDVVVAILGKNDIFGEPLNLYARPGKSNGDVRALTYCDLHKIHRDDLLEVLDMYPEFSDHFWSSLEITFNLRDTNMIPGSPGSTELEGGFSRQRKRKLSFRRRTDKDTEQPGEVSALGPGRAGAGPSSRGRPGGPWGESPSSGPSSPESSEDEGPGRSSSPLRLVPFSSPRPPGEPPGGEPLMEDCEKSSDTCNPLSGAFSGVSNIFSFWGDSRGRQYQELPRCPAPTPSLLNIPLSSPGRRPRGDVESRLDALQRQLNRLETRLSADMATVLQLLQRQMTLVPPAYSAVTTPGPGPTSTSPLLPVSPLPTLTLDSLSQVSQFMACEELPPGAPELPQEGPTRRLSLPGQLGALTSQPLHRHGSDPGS

Structure (SMILES)	hERG current change (%, negative = inhibition) at 1uM [%]
COc1cc(Cl)c(NS(=O)(=O)c2cc3[nH]c(=O)c(=O)[nH]c3cc2C)c(OC)c1	7.29
Cc1c(C(=O)N2CCC(C)CC2)cccc1[N+](=O)[O-]	0.407
Cc1ccc(C2(C)NC(=O)N(CC(=O)NNC(=O)c3ccccc3F)C2=O)cc1 (centres unmarked)	-1.89
CC1CCCC(NC(=O)COC(=O)Cc2ccc(Br)cc2)C1C (centres unmarked)	12.3
COc1ccc(-n2cc(CNC(C)c3ccncn3)c(-c3cccc(F)c3)n2)cc1 (centres unmarked)	-3.56
N#Cc1c(Cl)cccc1-n1ccnc1	3.17
CN(C)c1ccc(C(=O)OCc2ccccc2)cc1	14
CCOC(=O)C1=C(C)NC(=O)CC1c1ccccc1OC (centres unmarked)	12
COc1ccccc1NC(=O)Cn1c(=O)oc2cc(S(=O)(=O)N3CCCC3)ccc21	16.4
CC(=O)C1=C(O)C(=O)N(CCN2CCOCC2)C1c1ccc(N(C)C)cc1.Cl (centres unmarked)	3.95
CCc1cc(C)cc(OCCOc2ccccc2/C=N/NC(C)=O)c1	11.6
COc1cccc(OCC(=O)O/N=C(\N)c2ccc(OC)c(OC)c2)c1	9.32
CC(C)c1ccccc1NC(=O)CC1(CC(=O)O)CCCC1	-1.31
COc1cccc2[nH]c(=O)c(-c3ccccc3)cc12	11.7
Cc1cc(C(=O)COC(=O)c2ccc[nH]c2=O)c(C)n1-c1ccc(Br)cc1	3.19
COc1ccccc1Nc1nc(C)cc(C)c1C(N)=O	7.52
CCN(CC)c1ccc2cc(C(=O)Nc3ccccn3)c(=O)oc2c1	14.9
COc1ccc(-c2cc(C(=O)NCc3cccnc3)no2)cc1	-12.3
CN(C)CC(NC(=O)c1cccc(S(=O)(=O)Nc2ccc3c(c2)OCO3)c1)c1ccccc1 (centres unmarked)	1.07
O=C1Nc2ccc(S(=O)(=O)NCc3ccco3)c3cccc1c23	-13.8
CCOCCCn1c(SCC(=O)Nc2cc(C(C)(C)C)nn2-c2ccccc2)nc2ccccc2c1=O	-6.54
CC1=CC2=NC(=O)/C(=C\c3cc(C)n(-c4ccccc4F)c3C)C(=N)N2O1	8.4

Structure (SMILES)	hERG current change (%, negative = inhibition) at 1uM [%]
O=C(O)c1cncc(C#CCC2CCCCC2)c1	3.72
CC(=O)c1ccc(NC(=O)c2ccccc2Sc2ncnc3sc(C)c(C)c23)cc1	-2.71
O=C(Nc1ccc(N2CCCCC2)cc1)c1ccc2c(c1)OCCO2	-0.219
COc1cccc(NC(C)C(=O)Nc2cc([N+](=O)[O-])ccc2Cl)c1 (centres unmarked)	6.75
C/C(=N\O)C1/C(=N/O)CC2C1C2(C)C (centres unmarked)	-1.61
CC(Sc1nnc(C2CC2)n1C1CC1)C(=O)Nc1cccc(S(=O)(=O)N(C)C)c1 (centres unmarked)	6.02
Cc1ccccc1N(C(=O)Cn1nnc2ccccc21)C(C(=O)NCc1ccco1)c1ccncc1 (centres unmarked)	5.11
COc1ccc(CNC(=O)COC(=O)CCc2c[nH]c3ccccc23)cc1	11.2
Cc1nc(Nc2nc(CSc3nc4ccccc4[nH]3)cc(=O)[nH]2)nc2ccccc12	13.6
CC1(C)CC(NC(=O)CCc2ccccc2)CC(C)(C)N1.Cl	9.57
O=C(Nc1cccnc1)c1cccnc1Cl	11.1
CCCCOc1ccc(C(C)=O)cc1Cc1c(O)[nH]c(=S)[nH]c1=O	14.8
COc1ccc(CN(CC(=O)NCc2ccc(F)cc2)C(=O)CCC(=O)Nc2cc(C)ccn2)cc1	-3.3
O=C(COC(=O)c1cc([N+](=O)[O-])ccc1NCc1ccccc1)NC1CCCc2ccccc21 (centres unmarked)	12.2
CCOc1cc(C(=O)NC)cc(Br)c1OCc1ccccc1	6.47
CCOc1ccccc1NC(=O)COn1nnc2ccc(Cl)cc21	6.27
CCc1ccc(N2C(=O)C3C(C2=O)N2CCCN2C3c2ccccc2)cc1 (centres unmarked)	19.7
CCN(CC)S(=O)(=O)c1cccc(-c2nnc(SCc3nnc(-c4cccs4)o3)n2N)c1	-1.29
c1ccc(-c2noc(-c3cccnc3)n2)cc1	5.79
CN(C)CCCN=Cc1c(O)n(CCc2ccc(F)cc2)c(=O)[nH]c1=O	14.7
Cc1ccc(/C=C/C(=O)Nc2cc(S(N)(=O)=O)ccc2O)cc1	-20.6
Cc1ccc(N(C(=O)c2csnn2)C(C(=O)NC2CCCCC2)c2cccnc2)cc1C (centres unmarked)	11.5

Structure (SMILES)	hERG current change (%, negative = inhibition) at 1uM [%]
Cc1c(NC(=S)NC(=O)C(C)(C)C)c(=O)n(-c2ccccc2)n1C	2.33
Cc1ccc(C(=O)OCC(=O)NCc2ccco2)s1	15.9
CC12CC[C@H]3[C@@H](CCC4(O)C[C@H](O)CCC34/C=N/NC(=O)c3ccccc3F)C1(O)CCC2C1=CC(=O)OC1 (some centres unmarked)	11.7
CCC(C)C(=O)Nc1cc([N+](=O)[O-])ccc1Cl (centres unmarked)	7.76
CSc1ncccc1C(=O)OCC(=O)N(CC(C)C)c1c(N)n(Cc2ccccc2)c(=O)[nH]c1=O	10.6
N#C/C(=C\c1cn(Cc2ccccc2F)c2ccccc12)C(=O)NCc1ccco1	11.7
Cc1cc(/C=C2\C(=O)NC(=O)N(c3ccc(Cl)cc3)C2=O)c(C)n1-c1cccc(C(=O)O)c1	14.9
c1ccc2c(c1)CCNC2c1ccncc1 (centres unmarked)	16.1
O=C(COC(=O)Cc1n[nH]c(=O)c2ccccc12)Nc1ccc(Cl)cn1	8.19
COc1ccc(CC(C#N)(CO)c2nc3ccccc3[nH]2)cc1 (centres unmarked)	2.2
COc1ccc(Cn2c(C)nc3c(c(=O)c4ccccc4n3C)c2=O)cc1	13.1
COc1ccc(C(=O)NCc2ccc(C(=O)O)o2)cc1	4.44
COCc1ccc(CN2CCC(CO)(CC3CCCCO3)CC2)o1 (centres unmarked)	18.7
CCCN(CC(=O)Nc1ccc(Cl)cc1Cl)C(=O)/C=C/c1cc(OC)ccc1OC	15.5
COc1ccc(Cn2c(O)c(C=Nc3c(C)n(C)n(-c4ccccc4)c3=O)c(=O)[nH]c2=O)cc1	6.69
CSc1ccc(/C=C(\C#N)C(=O)Nc2cccc(C)c2)cc1	5.32
COc1cccc(NC(=O)c2nn(C)c3c2CS(=O)(=O)c2ccccc2-3)c1	26.1
COc1ccc(N2CCN(C(=O)COC(=O)c3cnccn3)CC2)cc1	10.8
CCS(=O)(=O)Nc1ccc(-c2nnc(SCC(=O)c3ccc(NC(C)=O)c(OC)c3)o2)cc1	0.619
CC(C)(C)c1nc2cc(Cl)c([N+](=O)[O-])cc2o1	8.86
Cc1cc([N+](=O)[O-])nn1CC(=O)Nc1ccccn1	8.07
COc1ccc(N(C)S(=O)(=O)c2c(C)[nH]c(=O)[nH]c2=O)c(OC)c1	-0.199

Structure (SMILES)	hERG current change (%, negative = inhibition) at 1uM [%]
O=C1CCCc2oc3c(cc(NS(=O)(=O)c4ccc5c6c(cccc46)C(=O)N5)c4ccccc43)c21	-6.54
CCCCN(C(=O)c1c(CC)noc1C)c1c(N)n(CC(C)C)c(=O)[nH]c1=O	6.4
C=CCC(NCc1ccccc1)c1ccc(Cl)cc1 (centres unmarked)	9.54
O=C(CNC(=O)c1ccc(F)cc1)c1ccc(Cl)cc1	19.6
O=C(c1cccc(F)c1)N1CCc2ccccc21	-4.39
CC(=O)c1ccc(NC(=S)N2CCN(c3ccccn3)CC2)cc1	13.1
COc1ccc(Cl)cc1N1C(=O)CC(Sc2ccccc2N)C1=O (centres unmarked)	6.94
Cc1cccc(CS(=O)(=O)c2ncc(Cl)c(C(=O)NCc3ccccc3)n2)c1	2.19
O=C(CSC1CC(=O)N(CCc2ccccc2)C1=O)Nc1ccc(Br)cc1 (centres unmarked)	-4.8
CSc1ccc(/C=C(\C#N)C(=O)NC2CCCCC2C)cc1 (centres unmarked)	1.5
CCOC(=O)Cc1csc(NC(=O)CC(C)(C)C)n1	16.6
Cc1ccccc1NC(=O)c1ccc(F)c(S(=O)(=O)N2CCCCC2)c1	9.08
C=CCn1c(SCC(=O)Nc2ccc(F)cc2F)nnc1-c1cnccn1	2.14
CC(C)(C)C(=O)Nc1ccccc1C(=O)N1CCCC1	16.7
Cc1ccc(CNC(=O)c2cc(-c3ccccc3C)n(CC3CC(c4cccc([N+](=O)[O-])c4)=NO3)n2)cc1 (centres unmarked)	7.74
COc1cc(OC)cc(OC(=O)C2CCN(S(=O)(=O)c3ccc(OC)c(OC)c3)CC2)c1	3.95
CSc1ccccc1C(=O)Nc1ccc(C)cc1C	7.24
CCN1CCN(CCCNC(=O)C2c3ccccc3C(=O)N(c3ccc(OC)cc3)C2c2ccc(OC)cc2)CC1 (centres unmarked)	12
COc1ccc2c(c1OC)C(=O)O[C@@H]2[C@H]1c2c(cc3c(c2OC)OCO3)CCN1C	8.55
COc1ccc(/C=C/C(=O)NC(=S)NNC(=O)c2c(-c3ccccc3)noc2C)cc1	12.2
